Test [1] relates to RAW-Dual. Nature of the test: IRF Lucia reporter activity, fold change vs agonist alone; cytotoxicity flag (confluency mask): cytotoxic (confluency <70% of control); higher = enhanced IRF activity. Put shortly: (§1)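 After 50 nL of library stock was delivered by pin tool to RAW-Dual macrophages (50,000 cells/well, DMEM, 384-well plates), a PRR agonist was added 1 h later and the plates were kept at 37 °C, 5% CO2. Twenty hours later, IRF was read from supernatant by QuantiLuc luminescence and NF-κB by QuantiBlue absorbance at 620 nm. Reporter activity is stated as fold change over agonist-alone wells. Wells with IncuCyte confluency under 70% of agonist controls in both mask sets were counted as cytotoxic.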

The subject of test [2] is RAW-Dual. Nature of the test: IRF Lucia reporter activity, fold change vs agonist alone; cytotoxicity flag (confluency mask): not cytotoxic; higher = enhanced IRF activity. The gist of the method:
as §1

For test [3], the system named is RAW-Dual. Nature of the test: IRF Lucia reporter activity, fold change vs agonist alone; higher = enhanced IRF activity. Particulars: library stock concentration (final ~1000-fold dilution): 10 mM, agonist: MPLA (TLR4) […]. The gist of the method:
as §1

The mark [4] stands for this setting: agonist: 3'3'-cGAMP (STING) 10 ug/mL.
Setting [5] is: cytotoxicity flag (confluency mask): cytotoxic (confluency <70% of control).
Where [6] appears, read: cytotoxicity flag (confluency mask): not cytotoxic.

Several values for one entry are separate records, joined by “and”; a condition that tells them apart may be missing. Identical values can stand only once. ± gives the standard deviation of the averaged measurements. In all, about 2,900 compounds were measured (“IRF Lucia reporter activity, fold change vs agonist alone”: median about 0.9, highest 2% from about 2.8 on). The list shows a part of the results.

Take `COc1c(C)cnc(Cn2cnc3c(Cl)nc(N)nc32)c1C` (library stock concentration (final ~1000-fold dilution): 10 mM): the “IRF Lucia reporter activity” value came to 0.723 in the test with RAW-Dual [1] (setting [4]) and 1.29 in the test on RAW-Dual [1] (agonist: LPS (TLR4) 0.1 ug/mL). Regarding `CC(=O)NC(Cc1ccc(O)cc1)C(=O)NC(CCCNC(=N)N)C(=O)NC(Cc1ccccc1)C(N)=O` (centres undefined) (library stock concentration (final ~1000-fold dilution): 10 mM), the “IRF Lucia reporter activity” value in the test with RAW-Dual [2] (setting [4]) turned out to be 0.931; with RAW-Dual [2] (agonist: LPS (TLR4) 0.1 ug/mL), 0.994. For `Cc1ccc(C2OC(CO)C(O)C(O)C2O)cc1Cc1ccc(-c2ccc(F)cc2)s1.Cc1ccc(C2OC(CO)C(O)C(O)C2O)cc1Cc1ccc(-c2ccc(F)cc2)s1.O` (centres undefined), the “IRF Lucia reporter activity” value with RAW-Dual [3] (setting [5]) was 0.0328. Turning to `Cc1ccc(C2OC(CO)C(O)C(O)C2O)cc1Cc1ccc(-c2ccc(F)cc2)s1.Cc1ccc(C2OC(CO)C(O)C(O)C2O)cc1Cc1ccc(-c2ccc(F)cc2)s1.O` (centres undefined) (library stock concentration (final ~1000-fold dilution): 10 mM), the “IRF Lucia reporter activity” value in the test on RAW-Dual [1] (setting [4]) was determined as 0.0212; in the test with RAW-Dual [1] (agonist: LPS (TLR4) 0.1 ug/mL) it was 0.026.

Consider `COc1ccc(Cl)c(Nc2nc3ccccc3nc2NS(=O)(=O)c2cccc(NC(=O)C(C)(C)N)c2)c1` (library stock concentration (final ~1000-fold dilution): 10 mM), for which the “IRF Lucia reporter activity” value in the test on RAW-Dual [1] (setting [4]) was 0.158; with RAW-Dual [1] (agonist: LPS (TLR4) 0.1 ug/mL), 0.791. As for `O=C(Cc1ccccc1)Nc1nnc(CCSCCc2nnc(NC(=O)Cc3ccccc3)s2)s1` (library stock concentration (final ~1000-fold dilution): 10 mM), the results for the “IRF Lucia reporter activity” value in the test on RAW-Dual [2] (setting [4]) and in the test with RAW-Dual [2] (agonist: LPS (TLR4) 0.1 ug/mL) were 0.986 and 1.4, respectively. Take `COc1cc(-c2ncn(/C=C\C(=O)OC(C)C)n2)cc(C(F)(F)F)c1` (library stock concentration (final ~1000-fold dilution): 10 mM): the “IRF Lucia reporter activity” value in the test with RAW-Dual [1] (setting [4]) turned out to be 0.0197; in the test with RAW-Dual [1] (agonist: LPS (TLR4) 0.1 ug/mL), 0.121. For `COc1cc(-c2ncn(/C=C\C(=O)OC(C)C)n2)cc(C(F)(F)F)c1`, in the test with RAW-Dual [3] (setting [5]), the “IRF Lucia reporter activity” value came out at 0.0902. With `COc1ccc(-c2nc(N3CCOCC3)c3sc(CN(C)c4ncc(C(=O)NO)cn4)cc3n2)cn1` (library stock concentration (final ~1000-fold dilution): 10 mM), the “IRF Lucia reporter activity” value was 0.0418 in the test with RAW-Dual [1] (setting [4]) and 0.611 with RAW-Dual [1] (agonist: LPS (TLR4) 0.1 ug/mL).

Regarding `COc1ccc(-c2nc(N3CCOCC3)c3sc(CN(C)c4ncc(C(=O)NO)cn4)cc3n2)cn1`, the “IRF Lucia reporter activity” value with RAW-Dual [3] (setting [5]) came to 0.434. On the same count and under the same terms, next, `Cc1cnc(Nc2ccc(OCCN3CCCC3)cc2)nc1Nc1cccc(S(=O)(=O)NC(C)(C)C)c1`: 0.0291. As to `Cc1cnc(Nc2ccc(OCCN3CCCC3)cc2)nc1Nc1cccc(S(=O)(=O)NC(C)(C)C)c1` (library stock concentration (final ~1000-fold dilution): 10 mM), the entries for the “IRF Lucia reporter activity” value in the test on RAW-Dual [1] (setting [4]) and in the test with RAW-Dual [1] (agonist: LPS (TLR4) 0.1 ug/mL) were 0.0581 and 0.013, respectively. Take `CC(CN1c2ccccc2Sc2ccccc21)N(C)C.Cl` (centres undefined): the “IRF Lucia reporter activity” value in the test on RAW-Dual [3] (setting [6]) amounted to 1.23. Regarding `CC(CN1c2ccccc2Sc2ccccc21)N(C)C.Cl` (centres undefined) (library stock concentration (final ~1000-fold dilution): 10 mM), the “IRF Lucia reporter activity” value with RAW-Dual [2] (setting [4]) was 0.442; in the test on RAW-Dual [2] (agonist: LPS (TLR4) 0.1 ug/mL), 1.43. For `CN(C)S(=O)(=O)c1ccc2c(c1)/C(=C/c1cc3c([nH]1)CCCC3)C(=O)N2` (library stock concentration (final ~1000-fold dilution): 10 mM), in that order: 0.0973 and 0.272.

For `O=C(O)CC(=O)C(=O)O`, the “IRF Lucia reporter activity” value in the test on RAW-Dual [3] (setting [6]) came out at 1.06. Consider `O=C(O)CC(=O)C(=O)O` (library stock concentration (final ~1000-fold dilution): 10 mM), for which the “IRF Lucia reporter activity” value in the test on RAW-Dual [2] (setting [4]) turned out to be 0.987; in the test on RAW-Dual [2] (agonist: LPS (TLR4) 0.1 ug/mL), 0.694. The like results for `Nc1ccccc1NC(=O)c1cnccn1` (library stock concentration (final ~1000-fold dilution): 10 mM) were, in that order, 0.602 and 0.436. With `C=C1CCN(C(C)C(O)(Cn2cncn2)c2ccc(F)cc2F)CC1` (centres undefined), the “IRF Lucia reporter activity” value in the test on RAW-Dual [3] (setting [5]) was determined as 2.14. Turning to `C=C1CCN(C(C)C(O)(Cn2cncn2)c2ccc(F)cc2F)CC1` (centres undefined) (library stock concentration (final ~1000-fold dilution): 10 mM), the figures for the “IRF Lucia reporter activity” value in the test with RAW-Dual [1] (setting [4]) and with RAW-Dual [1] (agonist: LPS (TLR4) 0.1 ug/mL) were 1.25 and 2.38, respectively. Take `Cc1ccc2nc(NCCN)c3ncc(C)n3c2c1` (library stock concentration (final ~1000-fold dilution): 10 mM): the “IRF Lucia reporter activity” value is 2.21 in the test on RAW-Dual [2] (setting [4]); 3.5 in the test on RAW-Dual [2] (agonist: LPS (TLR4) 0.1 ug/mL); 0.0229 and 0.0291 in the test with RAW-Dual [1] (agonist: LPS (TLR4) 0.1 ug/mL).

For the compound `C=C1CCC2C(C)(COC(=O)CCC(=O)O)C(OC(=O)CCC(=O)O)CCC2(C)C1/C=C/C1=CCOC1=O` (centres undefined) (library stock concentration (final ~1000-fold dilution): 10 mM), the “IRF Lucia reporter activity” value stood at 0.871 in the test on RAW-Dual [2] (setting [4]) and 1.01 in the test with RAW-Dual [2] (agonist: LPS (TLR4) 0.1 ug/mL). For `CC(=O)c1cc([N+](=O)[O-])c(Sc2ccc(F)cc2F)s1` (library stock concentration (final ~1000-fold dilution): 10 mM), the “IRF Lucia reporter activity” value in the test with RAW-Dual [1] (setting [4]) came out at 0.0205; with RAW-Dual [1] (agonist: LPS (TLR4) 0.1 ug/mL), 0.0256. As for `CC(=O)c1cc([N+](=O)[O-])c(Sc2ccc(F)cc2F)s1`, the “IRF Lucia reporter activity” value in the test with RAW-Dual [3] (setting [5]) was found to be 0.031. As for `C=CCc1ccc(O)c(-c2cc(CC=C)ccc2O)c1`, the “IRF Lucia reporter activity” value in the test with RAW-Dual [3] (setting [6]) worked out at 0.958 ± 0.1.

Consider `C=CCc1ccc(O)c(-c2cc(CC=C)ccc2O)c1` (library stock concentration (final ~1000-fold dilution): 10 mM), for which the “IRF Lucia reporter activity” value in the test on RAW-Dual [2] (setting [4]) worked out at 0.968 ± 0.044; in the test on RAW-Dual [2] (agonist: LPS (TLR4) 0.1 ug/mL), 0.851 ± 0.029.

(Values after the supplement of paper PMC10037445.)
